Among the targets are CALR (UniProt P27797); HSP90B1 (UniProt P14625); PDIA3 (UniProt P30101); PDIA4 (UniProt P13667); PDIA6 (UniProt Q15084); PPIB (UniProt P23284); SERPINH1 (UniProt P50454); HSPB1 (UniProt P04792); CD44 (UniProt P16070); NT5E (UniProt P21589); H4C1 (UniProt P62805); HSPA5 (UniProt P11021); RCN1 (UniProt Q15293).
Common to all, as to test: cross-linking mass spectrometry
Common to all, as to settings: DSSO, in cells

Certain results were filed several times, with different values. This is not the full list of results. The source may hold further records. Some entries list several cross-links; each record is another pair of residues.

Chain of UniProt P50454 (P50454 whole entry): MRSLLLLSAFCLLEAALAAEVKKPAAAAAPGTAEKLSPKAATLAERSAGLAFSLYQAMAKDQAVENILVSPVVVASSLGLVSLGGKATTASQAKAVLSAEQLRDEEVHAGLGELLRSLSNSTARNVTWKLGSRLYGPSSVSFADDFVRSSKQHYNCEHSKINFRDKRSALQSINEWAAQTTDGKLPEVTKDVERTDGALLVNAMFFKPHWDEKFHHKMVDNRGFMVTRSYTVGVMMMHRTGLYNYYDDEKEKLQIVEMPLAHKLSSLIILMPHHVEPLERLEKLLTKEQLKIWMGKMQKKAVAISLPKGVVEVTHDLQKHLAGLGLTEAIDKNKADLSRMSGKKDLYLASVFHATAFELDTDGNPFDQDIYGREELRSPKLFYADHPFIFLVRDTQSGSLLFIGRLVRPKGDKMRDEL
Chain of LGALS1 (P09382 whole entry): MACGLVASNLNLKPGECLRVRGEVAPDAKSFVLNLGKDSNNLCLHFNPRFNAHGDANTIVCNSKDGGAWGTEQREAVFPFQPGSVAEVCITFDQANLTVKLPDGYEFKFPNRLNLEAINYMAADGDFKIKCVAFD
Chain of UniProt P27797 (P27797 whole entry): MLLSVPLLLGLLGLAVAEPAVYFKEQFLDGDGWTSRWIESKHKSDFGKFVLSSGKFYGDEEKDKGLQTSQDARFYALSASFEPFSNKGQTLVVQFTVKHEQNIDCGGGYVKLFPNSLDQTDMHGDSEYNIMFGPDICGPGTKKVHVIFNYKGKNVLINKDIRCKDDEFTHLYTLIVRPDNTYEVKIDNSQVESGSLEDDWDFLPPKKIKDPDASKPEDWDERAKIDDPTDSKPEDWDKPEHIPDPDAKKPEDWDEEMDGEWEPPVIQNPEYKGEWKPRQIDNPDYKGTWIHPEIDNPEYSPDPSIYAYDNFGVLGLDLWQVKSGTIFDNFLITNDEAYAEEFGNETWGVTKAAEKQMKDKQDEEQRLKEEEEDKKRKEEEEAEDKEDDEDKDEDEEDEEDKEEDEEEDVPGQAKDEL
Chain of UniProt Q15084 (Q15084 whole entry): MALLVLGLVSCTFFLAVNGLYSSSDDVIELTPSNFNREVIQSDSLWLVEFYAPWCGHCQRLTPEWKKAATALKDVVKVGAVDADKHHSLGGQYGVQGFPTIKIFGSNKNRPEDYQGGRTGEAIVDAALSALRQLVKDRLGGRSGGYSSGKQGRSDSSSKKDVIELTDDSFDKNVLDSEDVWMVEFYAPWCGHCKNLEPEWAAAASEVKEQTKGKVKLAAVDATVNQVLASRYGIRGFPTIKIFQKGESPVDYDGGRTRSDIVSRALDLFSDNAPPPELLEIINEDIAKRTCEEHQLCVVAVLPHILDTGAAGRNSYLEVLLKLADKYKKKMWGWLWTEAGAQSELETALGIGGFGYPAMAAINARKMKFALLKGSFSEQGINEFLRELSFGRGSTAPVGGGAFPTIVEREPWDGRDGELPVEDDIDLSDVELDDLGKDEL
Chain of P4HB (P07237 whole entry): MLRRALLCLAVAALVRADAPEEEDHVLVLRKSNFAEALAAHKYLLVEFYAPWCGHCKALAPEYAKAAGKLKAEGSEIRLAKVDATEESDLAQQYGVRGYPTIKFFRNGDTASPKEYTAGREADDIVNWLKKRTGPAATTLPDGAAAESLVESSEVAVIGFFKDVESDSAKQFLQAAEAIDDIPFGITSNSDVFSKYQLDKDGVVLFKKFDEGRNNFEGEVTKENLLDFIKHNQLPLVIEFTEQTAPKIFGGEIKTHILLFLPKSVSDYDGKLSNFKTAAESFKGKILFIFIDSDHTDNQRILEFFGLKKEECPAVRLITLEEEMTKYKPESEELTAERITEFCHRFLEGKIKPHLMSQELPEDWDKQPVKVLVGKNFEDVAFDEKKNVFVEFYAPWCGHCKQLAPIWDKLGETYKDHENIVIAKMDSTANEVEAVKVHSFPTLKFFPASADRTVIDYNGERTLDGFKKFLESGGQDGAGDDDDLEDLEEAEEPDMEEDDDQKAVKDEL
Chain of HSPA5 (P11021 whole entry): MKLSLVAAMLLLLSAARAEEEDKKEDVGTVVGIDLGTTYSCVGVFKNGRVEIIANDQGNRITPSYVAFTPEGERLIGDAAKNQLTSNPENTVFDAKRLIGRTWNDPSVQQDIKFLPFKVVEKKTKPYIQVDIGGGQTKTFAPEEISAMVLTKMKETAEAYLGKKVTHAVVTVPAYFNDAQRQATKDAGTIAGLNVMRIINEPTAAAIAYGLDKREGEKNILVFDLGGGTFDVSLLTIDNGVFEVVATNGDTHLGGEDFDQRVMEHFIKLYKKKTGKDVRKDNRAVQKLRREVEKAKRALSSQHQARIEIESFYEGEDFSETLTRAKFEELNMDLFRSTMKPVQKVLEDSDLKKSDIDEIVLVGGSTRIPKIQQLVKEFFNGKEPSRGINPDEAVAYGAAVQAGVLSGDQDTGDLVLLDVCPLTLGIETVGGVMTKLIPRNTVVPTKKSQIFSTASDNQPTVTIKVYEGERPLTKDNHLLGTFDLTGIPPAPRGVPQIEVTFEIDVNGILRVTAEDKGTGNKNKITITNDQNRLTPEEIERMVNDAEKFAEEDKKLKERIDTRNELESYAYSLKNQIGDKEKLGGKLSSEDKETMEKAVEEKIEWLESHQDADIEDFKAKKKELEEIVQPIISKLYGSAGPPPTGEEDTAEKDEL
Chain of UniProt P14625 (P14625 whole entry): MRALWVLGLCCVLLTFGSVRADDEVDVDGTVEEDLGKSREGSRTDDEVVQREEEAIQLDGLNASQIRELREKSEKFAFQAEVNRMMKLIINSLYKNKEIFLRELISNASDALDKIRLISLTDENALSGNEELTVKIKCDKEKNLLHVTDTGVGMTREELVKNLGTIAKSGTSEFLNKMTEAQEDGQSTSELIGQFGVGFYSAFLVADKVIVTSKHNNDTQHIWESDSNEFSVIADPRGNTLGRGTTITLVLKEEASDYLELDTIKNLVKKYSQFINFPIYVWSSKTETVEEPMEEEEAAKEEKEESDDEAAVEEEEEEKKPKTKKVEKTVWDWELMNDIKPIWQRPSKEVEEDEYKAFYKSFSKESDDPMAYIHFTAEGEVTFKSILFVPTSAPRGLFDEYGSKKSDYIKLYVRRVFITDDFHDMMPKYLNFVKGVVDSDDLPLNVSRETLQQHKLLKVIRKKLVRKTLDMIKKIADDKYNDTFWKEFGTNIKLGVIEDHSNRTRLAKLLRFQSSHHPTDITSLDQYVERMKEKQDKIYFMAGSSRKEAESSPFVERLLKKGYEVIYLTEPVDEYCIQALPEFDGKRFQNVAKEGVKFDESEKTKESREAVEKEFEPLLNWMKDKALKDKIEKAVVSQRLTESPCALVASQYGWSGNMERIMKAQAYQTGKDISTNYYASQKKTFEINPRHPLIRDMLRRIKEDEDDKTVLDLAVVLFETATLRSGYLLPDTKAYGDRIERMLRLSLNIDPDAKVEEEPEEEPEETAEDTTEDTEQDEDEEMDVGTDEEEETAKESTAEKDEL
Chain of ITGB1 (P05556 whole entry): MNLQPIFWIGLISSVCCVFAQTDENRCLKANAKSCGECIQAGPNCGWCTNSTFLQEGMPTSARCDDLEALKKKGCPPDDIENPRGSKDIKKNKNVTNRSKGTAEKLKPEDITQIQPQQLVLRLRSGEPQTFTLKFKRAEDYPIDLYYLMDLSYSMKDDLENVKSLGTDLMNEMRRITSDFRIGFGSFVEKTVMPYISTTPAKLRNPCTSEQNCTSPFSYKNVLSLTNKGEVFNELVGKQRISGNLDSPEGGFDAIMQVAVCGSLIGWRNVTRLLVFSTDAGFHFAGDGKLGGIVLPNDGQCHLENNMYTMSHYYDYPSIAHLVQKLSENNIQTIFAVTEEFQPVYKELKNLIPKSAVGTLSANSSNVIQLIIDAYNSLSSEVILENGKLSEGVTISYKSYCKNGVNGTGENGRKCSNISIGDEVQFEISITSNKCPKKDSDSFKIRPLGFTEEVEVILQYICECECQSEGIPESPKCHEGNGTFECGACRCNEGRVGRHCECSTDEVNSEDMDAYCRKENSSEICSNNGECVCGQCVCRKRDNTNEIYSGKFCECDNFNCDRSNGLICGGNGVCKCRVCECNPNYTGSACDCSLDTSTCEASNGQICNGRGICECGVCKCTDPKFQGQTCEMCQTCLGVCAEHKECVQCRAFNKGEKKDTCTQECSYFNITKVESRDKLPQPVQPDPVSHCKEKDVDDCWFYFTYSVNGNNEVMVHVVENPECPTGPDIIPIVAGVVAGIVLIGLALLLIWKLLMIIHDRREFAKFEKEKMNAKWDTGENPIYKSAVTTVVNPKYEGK
Chain of UniProt P23284 (P23284 whole entry): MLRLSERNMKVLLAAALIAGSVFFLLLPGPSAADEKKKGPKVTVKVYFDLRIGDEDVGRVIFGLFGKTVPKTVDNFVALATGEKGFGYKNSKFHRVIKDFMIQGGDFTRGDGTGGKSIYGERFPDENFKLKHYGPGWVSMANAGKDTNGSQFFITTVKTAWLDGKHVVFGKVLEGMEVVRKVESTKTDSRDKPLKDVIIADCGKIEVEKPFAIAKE
Chain of UniProt P21589 (P21589 whole entry): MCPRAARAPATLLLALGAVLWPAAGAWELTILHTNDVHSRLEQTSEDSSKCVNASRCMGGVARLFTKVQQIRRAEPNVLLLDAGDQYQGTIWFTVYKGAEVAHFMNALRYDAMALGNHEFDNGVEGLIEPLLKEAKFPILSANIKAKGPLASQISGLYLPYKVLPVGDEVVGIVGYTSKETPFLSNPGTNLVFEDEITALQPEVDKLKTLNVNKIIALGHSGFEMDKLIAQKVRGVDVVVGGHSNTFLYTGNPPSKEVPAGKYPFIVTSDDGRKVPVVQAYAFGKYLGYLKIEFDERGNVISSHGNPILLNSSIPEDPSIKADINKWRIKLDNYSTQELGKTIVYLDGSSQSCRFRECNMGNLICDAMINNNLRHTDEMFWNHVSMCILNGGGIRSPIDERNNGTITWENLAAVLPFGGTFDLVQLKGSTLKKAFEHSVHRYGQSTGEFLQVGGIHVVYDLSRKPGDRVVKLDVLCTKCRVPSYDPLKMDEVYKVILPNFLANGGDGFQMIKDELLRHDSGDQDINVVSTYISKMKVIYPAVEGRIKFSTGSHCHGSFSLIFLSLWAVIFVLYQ

Take HSPA5, P11021: the cross-linked residues entry with CALR was “K185 - K360 and K340 - K43 and K340 - K62 and K340 - K64 and K340 - K360 and K340 - K374 and K370 - K41 and K370 - K43 and K370 - K62 and K370 - K153 and K370 - K360 and K376 - K43 and K376 - K153 and K516 - K360 and K523 - K43 and K523 - K209 and K523 - K360 and K547 - K153 and K579 - K43 and K579 - K360 and K596 - K153 and K596 - K360”; in the experiment with HSP90B1 it was “K164 - K161 and K164 - K168 and K213 - K547 and K340 - K348 and K344 - K348 and K370 - K597 and K523 - K671 and K547 - K537 and K547 - K597 and K547 - K671 and K573 - K633 and K579 - K537 and K579 - K597 and K579 - K633 and K579 - K671 and K579 - K682 and K621 - K633 and K621 - K671”; with PDIA3, “K370 - K289 and K370 - K460”; in the experiment with PDIA4, “K340 - K163 and K523 - K245”; in the experiment with PDIA6, “K113 - K150 and K185 - K150 and K213 - K150 and K213 - K368 and K287 - K150 and K340 - K150 and K352 - K150 and K370 - K150 and K370 - K159 and K376 - K150 and K446 - K85 and K446 - K150 and K446 - K160 and K446 - K245 and K516 - K67 and K516 - K85 and K516 - K150 and K516 - K159 and K516 - K160 and K516 - K245 and K521 - K150 and K523 - K66 and K523 - K85 and K523 - K150 and K523 - K159 and K523 - K160 and K523 - K245 and K547 - K66 and K547 - K150 and K547 - K159 and K547 - K326 and K547 - K328 and K553 - K150 and K553 - K241 and K553 - K245 and K573 - K150 and K579 - K67 and K579 - K85 and K579 - K150 and K579 - K245 and K596 - K150 and K621 - K241 and K621 - K245”; with PPIB it was “K287 - K67 and K287 - K116 and K287 - K186 and K340 - K92 and K340 - K116 and K340 - K186 and K352 - K131 and K370 - K92 and K370 - K116 and K370 - K195 and K523 - K92 and K523 - K116 and K523 - K186 and K547 - K116 and K579 - K186”. For the same substance, in the experiment with SERPINH1, the cross-linked residues entry is “K370 - K39 and K370 - K250 and K370 - K252 and K370 - K410 and K523 - K190 and K523 - K287 and K523 - K410 and K573 - K334 and K579 - K39 and K579 - K190 and K579 - K332 and K579 - K334”.
Consider CRYAB, P02511, for which the cross-linked residues result with HSPB1 is “K150 - K114 and K150 - K198”.
For the substance LGALS1, P09382, the cross-linked residues entry is “K29 - K158 and K108 - K158” with CD44; “K29 - K67 and K108 - K67” in the experiment with NT5E.
Regarding H1-5, P16401, in the experiment with H4C1, the cross-linked residues entry is “K49 - K9 and K78 - K9 and K140 - K9 and K168 - K9”.
Turning to ITGB1, P05556, the cross-linked residues entry with CALR was “K87 - K153 and K100 - K209 and K238 - K374”.
On to P4HB, P07237, for which the cross-linked residues result with CALR was “K71 - K360 and K71 - K374 and K409 - K153 and K415 - K360”; in the experiment with HSPA5, “K31 - K370 and K71 - K213”; with PDIA6 it was “K31 - K150 and K71 - K150”; with PPIB, “K31 - K186 and K71 - K116 and K71 - K186 and K114 - K116 and K114 - K186 and K271 - K116 and K308 - K116 and K326 - K116 and K350 - K92 and K350 - K116”; with RCN1, “K31 - K86 and K71 - K86”; with SERPINH1 it was “K31 - K39 and K31 - K190 and K31 - K334 and K71 - K190 and K71 - K287 and K71 - K332 and K103 - K190 and K114 - K334 and K308 - K190 and K309 - K190 and K309 - K410 and K326 - K334 and K409 - K334 and K436 - K190 and K436 - K334 and K444 - K190 and K444 - K334”.

For the origin of these results see publication PMC12280212.
